Drawing on the supplement of paper PMC6660600, “Odorant Inhibition in Mosquito Olfaction” (iScience, 2019), this text covers current response class for 21 molecules.

Some of the results follow. Many values rest on one well or one pass, so single values are uncertain.

This assay relates to CquiOR32-CquiOrco. Kind of assay: current response class (signed ordinal: positive = inward/excitatory, negative = outward/inhibitory) (ordinal score (-3..3)); higher = stronger inward (excitatory) current. As to conditions: 1 mM; holding potential (mV): -80.
For the molecule `CC(C)=CCO` [3-methyl-2-buten-1-ol], the current response class was inactive: 0.
For the molecule `CCC(C)O` (stereo unspecified) [2-butanol], the current response class was inactive: 0.
Then `CCC=O` [propanal], with inactive: 0; and `CC(=O)/C=C/C1C(C)=CCCC1(C)C` (stereo not drawn) [α-ionone], with inactive: 0; and `CCCC=O` [butanal], with inactive: 0.
For the molecule `CC1(C)C(=O)[C@@]2(C)CC[C@@H]1C2` [D-fenchone], the current response class is active: -3.
`CCCC/C=C/C=O` [(E)-2-heptenal]: the current response class is inactive: 0.
Take `CC(=O)OC/C=C(\C)CC/C=C(\C)CCC=C(C)C` [(E,E)-farnesyl acetate]: the current response class is inactive: 0.
For `OC1CCCCC1` [cyclohexanol], the current response class is active: 1.
For the molecule `C=CC(C)(C)O` [2-methyl-3-buten-2-ol], the current response class is inactive: 0.
For `CC1CCC(C(C)(C)O)C(O)C1` (stereo unspecified) [p-menthane-3,8-diol], the current response class is active: -3.
On to `C=CC1(C)CCC(C(C)(C)O)O1` (stereo unspecified) [linalool oxide], for which the current response class was active: -2.
In the case of `Cc1ccc(O)cc1` [4-methylphenol], the current response class is inactive: 0.
Turning to `CCCCCCCCCCC=O` [undecanal], the current response class was inactive: 0.
In the case of `Cc1cccc(O)c1` [3-methylphenol], the current response class is active: 1.
Turning to `CC/C=C\CCCCCCC=O` [(Z)-8-undecenal], the current response class was inactive: 0.
Consider `O=CCc1ccccc1` [phenylacetaldehyde], for which the current response class is active: 1.
Then `CCOC(=O)CC(C)O` (stereo unspecified) [ethyl 3-hydroxybutanoate], with active: 2; and `CCCCCCO` [1-hexanol], with active: 2; and `C=CC(C)(O)CCC=C(C)C` (racemic) [(±)-linalool], with active: -1.
As to `CCCCCCCO` [1-heptanol], the current response class is inactive: 0.
